Experimental data reported in PubChem BioAssay AID686978 (National Center for Advancing Translational Sciences (NCATS), 2013).
Screen size: about 420,000 compounds; about 64,000 (15%) were called active. Inconclusive means that the source gave no clear call. Such entries were picked first, then a sample of the others. Calls come from the whole dose curve; as a rule, active = well fitted inhibition curve with a large enough effect; inconclusive = small, poorly fitted or top-dose-only effect; inactive = flat fitted curve, though single readings scatter. No potency is given beside an inconclusive call; the fits are too rough.

assay: qHTS for Inhibitors of human tyrosyl-DNA phosphodiesterase 1 (TDP1): qHTS in cells in absence of CPT; conditions: DT40 Tdp1-/- hTDP1 cells, no CPT, ATP luminescence, 48 h; activity change, negative = growth inhibition: at 46.2 µM (top of the series) unless noted; note: nearly all actives have a fitted effect of over 55% in size
Outline: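 No-CPT arm: Tdp1-/-;hTDP1 DT40 cells (400/well) plus compounds, incubated ≥48 hr at 37 °C. Readout CellTiter-Glo luminescence.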
% is set by controls: 0 for no effect and ±100 for the full control effect; potency is the fitted concentration of half-maximal effect; tags give direction and shape of the fitted curve.

| Structure (SMILES) | Potency | activity change, negative = growth inhibition |
| --- | --- | --- |
| CC(=O)/C(=C/c1ccc(N(C)C)cc1)C(=O)c1ccccc1 | inconclusive [inhibitor, single point] |  |
| CC1Nc2ncnc(N3CCN(c4ccccc4)CC3)c2N(Cc2ccc(Br)cc2)C1=O (stereo not drawn) | active: 20.6 µM |  |
| CCCn1c(SCC(=O)N2CC(=O)Nc3ccccc32)nc2ccccc21 | inconclusive [inhibitor, single point] |  |
| Cc1sc(N(C(=O)CCc2ccccc2)c2ccc(C(=O)O)cc2)nc1-c1ccccc1 | inconclusive [inhibitor, single point] |  |
| COCCCNC1=C(C#N)C(=O)NC2(CCCC2)S1 | inactive |  |
| CCOC(=O)N1CCN(S(=O)(=O)CCNC(=O)c2ccc(F)cc2)CC1 | inactive |  |
| CN(Cc1ccccc1)c1nc2c(S(=O)(=O)c3cccc(Cl)c3)nnn2c2ccsc12 | inconclusive [inhibitor, single point] |  |
| CC(C)(C)C1(O)CCN2CC3c4ccccc4CCc4cccc(c43)C2C1 (stereo not drawn) | active: 23.7 µM |  |
| CCn1c(CNC(=O)c2cc(OC)c(OC)c(OC)c2)cc2ccccc21 | inconclusive [inhibitor, single point] |  |
| Cc1ccc(C(=O)N2CCCc3ccccc32)c(F)c1F | inconclusive [inhibitor, partial curve] |  |
| COc1cc(CN2CCC(C(=O)NCCC(C)C)CC2)ccc1OCc1ccccc1 | inconclusive [inhibitor, partial curve] |  |
| CC1(C)CC(=O)C2=C(C1)NC(=O)CC2c1cc(F)ccc1F (stereo not drawn) | inactive |  |
| CCCc1cc(C(=O)Nc2ccc(C(=O)c3ccc(C)cc3)cc2)n(C)n1 | inconclusive [inhibitor, single point] |  |
| NC(=O)CN1C(=O)C2C3CCC(C3)C2C1=O (stereo not drawn) | inactive |  |
| CCN1C[C@@H]2[C@@H]3C(=O)N(C)C(=O)[C@@H]3[C@](CC)(C1=O)N2C(=O)c1ccc(F)cc1 | inactive |  |
| CS(=O)(=O)c1ccc(NC(=O)c2cc3c(cc2Cl)N2CCCCCC2=NS3(=O)=O)cc1 | inactive |  |
| CCC(C)NC(=O)/C(=C/c1ccco1)c1ccccc1 (stereo not drawn) | inconclusive [inhibitor, partial curve] |  |
| CCCCOc1ccc(CC(=O)NOC)cc1 | inactive |  |
| COc1ccc(S(=O)(=O)N2CCC[C@@H]2C(=O)N2CCC[C@H]2C(=O)NCc2ccncc2)cc1C | inconclusive [inhibitor, single point] |  |
| CCOCC(=O)Nc1nc(-c2ccccc2)c(CC)s1 | inconclusive [inhibitor, single point] |  |
| COCCCNC(=S)N/N=C/c1ccc(N(C)C)cc1Cl | inconclusive [inhibitor, partial curve, poor fit] |  |
| Cc1ccc2c(c1)N(C(=O)N1CCC(C(=O)Nc3cccc(F)c3)CC1)CCO2 | active: 18.4 µM |  |
| COc1ccc(C(c2nnnn2CS(=O)(=O)c2ccc(C)cc2)N2CCN(c3ncccn3)CC2)cc1 (stereo not drawn) |  | inconclusive: -30.7% [inhibitor] |

| Structure (SMILES) | Potency | activity change, negative = growth inhibition |
| --- | --- | --- |
| O=S(=O)(NCCc1csc2nc(-c3ccc(Cl)cc3)nn12)c1cccs1 | active: 14.6 µM |  |
| Cc1ccc(Oc2ccc(Cl)cc2N)cc1 | inconclusive [inhibitor, single point] |  |
| CCOC(=O)C1(C)CCCCCN1C(=O)c1ccc(C(F)(F)F)nc1C (stereo not drawn) | inconclusive [inhibitor, single point] |  |
| CN1CCN(c2nc3cc(C(F)(F)F)ccc3n3cccc23)CC1 | active: 20.6 µM |  |
| COC(=O)c1ccccc1NC(=O)NCc1ccc2c(c1)CCN2C(=O)c1ccccc1 | active: 16.4 µM |  |
| CC1CCN(Cc2c(O)ccc3c(=O)c(-c4nc5ccccc5s4)c(N)oc23)CC1 | inconclusive [inhibitor, single point] |  |
| CCCC(=NC(C)CC)C1=C(O)CC(c2ccccc2)CC1=O (stereo not drawn) | inconclusive [inhibitor, partial curve] |  |
| CCC1CN(S(=O)(=O)c2cc(-c3cc(C)no3)ccc2OC)c2cc(Cl)ccc2O1 (stereo not drawn) | inconclusive [inhibitor, single point] |  |
| COc1cccc(C2(CC(=O)N3CCN(c4ccccn4)CC3)CC(=O)N(C3CCCC3)C2=O)c1 (stereo not drawn) | inconclusive [inhibitor, single point] |  |
| Cc1ccc(-c2c(C(=O)N/N=C/C3CC=CCC3)nnn2-c2nonc2N)cc1 (stereo not drawn) |  | inconclusive: -30.7% [inhibitor] |
| COc1ccc(-c2nn(C)c3sc(C(=O)NCc4ccco4)cc23)cc1OC | active: 20.6 µM |  |
| NS(=O)(=O)c1cc(C(=O)OCC(=O)Nc2ccc3c(c2)OCO3)ccc1Cl | inactive |  |
| C/C=C(/C)C(=O)O[C@@H]1c2cc3c(c(OC)c2-c2c(cc(OC)c(OC)c2OC)[C@@H](OC(C)=O)[C@@H](C)[C@H]1C)OCO3 | active: 16.4 µM |  |
| CCOc1ccc(S(=O)(=O)N2CCCC(C(=O)NCc3ccncc3)C2)cc1 (stereo not drawn) | inconclusive [inhibitor, partial curve] |  |
| CC(C)(C)c1ccc(C(=O)Nc2cccc(-n3cnnn3)c2)cc1 | active: 2.59 µM |  |
| Cc1ccc(OC(C)C(=O)N=Nc2c(O)[nH]c3ccc([N+](=O)[O-])cc23)cc1 (stereo not drawn) | inconclusive [inhibitor, single point] |  |
| CCN1C(=NCc2ccco2)N[C@@H](c2cccc(C(F)(F)F)c2)C(C(=O)OC)=C1C | inconclusive [inhibitor, single point] |  |
| CC1CCN(C(c2ccc(N(C)C)cc2)c2nnnn2Cc2ccc(F)cc2)CC1 (stereo not drawn) | inconclusive [inhibitor, single point] |  |
| COc1ccccc1Nc1cc(C(=O)NCCCN(C)C2CCCCC2)c2ccccc2n1 | inconclusive [inhibitor, single point] |  |
| COc1cccc(N2CCN(CC(=O)c3c(C)[nH]c4ccccc34)CC2)c1 | inconclusive [inhibitor, single point] |  |
| O=C(Nc1ccncc1)c1ccc([N+](=O)[O-])cc1Cl | inactive |  |
| Cc1cccc(N/C(N)=N/c2nc(CSc3ccc(Cl)cc3)cc(=O)[nH]2)c1 | active: 9.2 µM |  |
| Cc1ccc(C(=O)NC(=S)Nc2ccccc2N2CCOCC2)cc1C | inconclusive [inhibitor, partial curve, poor fit] |  |

| Structure (SMILES) | Potency | activity change, negative = growth inhibition |
| --- | --- | --- |
| CN(C)c1ccc(-c2noc(C3CCN(S(=O)(=O)c4cccc(Cl)c4)CC3)n2)cc1 | inconclusive [inhibitor, single point] |  |
| CCN(C1CCCCC1)S(=O)(=O)c1ccc(S(=O)(=O)N2CCN(CCC#N)CC2)cc1 | inactive |  |
| CN1CCN(CCC(=O)N/N=C/c2cc([N+](=O)[O-])ccc2O)CC1 | inconclusive [inhibitor, partial curve, poor fit] |  |
| CCc1ccccc1NC(=O)CN(c1cc(C(F)(F)F)ccc1Cl)S(=O)(=O)c1ccccc1 | inconclusive [inhibitor, single point] |  |
| O=c1c2oc3ccccc3c2n(Cc2ccccc2Cl)c(=O)n1Cc1ccc2c(c1)OCO2 |  | inconclusive: -30.2% [inhibitor] |
| Cc1cc(C)nc(Nc2n[nH]c(-c3cccc4ccccc34)n2)n1 | inconclusive [inhibitor, single point] |  |
| NS(=O)(=O)c1cccc(NC(=O)CCS(=O)(=O)c2ccc(Cl)cc2)c1 | inactive |  |
| Cc1cc(C)cc(NC(=O)[C@H]2O[C@@H]3OC(C)(C)O[C@@H]3[C@H]3OC(C)(C)O[C@H]32)c1 |  | inconclusive: -31.5% [inhibitor] |
| CN(CC(=O)Nc1ccccc1Cl)C(=O)c1cccc(S(=O)(=O)N2CCN(Cc3ccccc3)CC2)c1 | active: 9.2 µM |  |
| NC(=O)c1ccc(-n2nnnc2SCC(=O)Nc2ccccc2-c2ccccc2)cc1 | active: 16.4 µM |  |
| CC(CCc1ccccc1)NC(=O)Cc1ccccc1 (stereo not drawn) | inactive |  |
| Cc1ccc(N=C2C(=O)Nc3ccccc32)cc1 | inactive |  |
| Cc1ccc2c(c1)N(C(=O)CCC(=O)NCc1ccccc1F)CC(C)O2 (stereo not drawn) | inconclusive [inhibitor, partial curve, poor fit] |  |
| COc1ccc(CNC(=O)c2cc(S(=O)(=O)N3CCCCC3)ccc2Cl)cc1OC | active: 18.4 µM |  |
| C[C@H]1CN([C@@H](C)CO)C(=O)CCCn2cc(nn2)CO[C@@H]1CN(C)C(=O)Nc1ccccc1F | inconclusive [inhibitor, full curve, poor fit] |  |
| Cc1cc(C)c2nc(N3CCCN(C(=O)c4ccco4)CC3)c(C#N)cc2c1 | inconclusive [inhibitor, single point] |  |
| C=CCn1c(=NC(=O)c2cccs2)sc2cc(NC(C)=O)ccc21 | inconclusive [inhibitor, single point] |  |
| CC(Sc1ccccc1)C(=O)N1CCN(S(=O)(=O)c2ccc(Cl)cc2)CC1 (stereo not drawn) | inconclusive [inhibitor, single point] |  |
| CC(C)C[C@H](NC(=O)c1ccc(OC2CCN(C(=O)C3CC3)CC2)cc1)C(N)=O |  | inconclusive: -32.3% [inhibitor] |
| C=CCn1c(=O)c2ccc(C(=O)NCc3ccccc3)cc2n(Cc2cccc(Cl)c2)c1=O | active: 13 µM |  |
| CC12CCC(O)CC1=CCC1C2CCC2(C)C1CCC21CCC(=O)O1 (stereo not drawn) | inconclusive [inhibitor, single point] |  |
| O=C(Nc1ccc(F)cc1)c1cccnc1 | inconclusive [inhibitor, partial curve] |  |
